{"source": "PubChem BioAssay AID624417", "about": "(National Center for Advancing Translational Sciences (NCATS), 2012)", "note": "Hit rate of the full screen: of about 410,000 compounds, about 6,400 (1.6%) were called active. The inconclusive results got no clear call from the source; some entries with a clear call stand among them for comparison. The call rests on the fitted dose curve; in most records, active means well fitted inhibition curve with a large enough effect; inconclusive means small, poorly fitted or top-dose-only effect; inactive means no such curve, though single readings can be large or run the other way. Potencies of inconclusive entries are left out as doubtful fits. On the % scale 0 is the no-effect control and ±100 the full control effect; potency means the concentration at half of the fitted maximal effect; tags describe the fitted curve by direction and shape."}
{"biological_target": "Glucagon-like peptide 1 receptor (Homo sapiens) (UniProt P43220)", "sequence (P43220 whole entry, looked up)": "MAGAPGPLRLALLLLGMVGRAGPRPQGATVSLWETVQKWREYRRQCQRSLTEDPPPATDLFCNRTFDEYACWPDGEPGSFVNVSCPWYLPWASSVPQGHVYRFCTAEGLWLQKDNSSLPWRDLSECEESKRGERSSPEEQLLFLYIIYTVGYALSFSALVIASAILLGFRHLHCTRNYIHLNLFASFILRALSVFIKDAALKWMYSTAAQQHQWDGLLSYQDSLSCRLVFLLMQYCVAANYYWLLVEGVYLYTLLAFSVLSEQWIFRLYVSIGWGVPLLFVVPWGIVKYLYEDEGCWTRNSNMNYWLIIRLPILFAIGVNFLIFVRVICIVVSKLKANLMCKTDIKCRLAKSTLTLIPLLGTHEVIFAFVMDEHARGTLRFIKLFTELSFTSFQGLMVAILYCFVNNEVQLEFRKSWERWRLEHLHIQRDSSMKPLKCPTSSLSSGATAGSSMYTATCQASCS", "test": "qHTS of GLP-1 Receptor Inverse Agonists (Inhibition Mode); further: nearly all actives have a fitted effect of over 55% in size", "settings": "HEK293 GLP-1R CRE-luciferase, luminescence, 24 h, GLP-1R form is constitutively active; activity change, negative = inhibition: at 38.3 µM (top of the series) unless noted", "method_in_brief": "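Inverse agonists were sought by their lowering of basal cAMP reporter luciferase output in HEK293 cells stably carrying constitutively active human GLP-1R, after 24 h compound treatment.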"}
{"smiles": "CCOc1ccc(NC(=O)CCc2c(C)nn(-c3ccc(N4CCCCC4)nn3)c2C)cc1", "Potency": "inconclusive [inhibitor, single point]"}
{"smiles": "COc1cccc(-n2c(-c3ccco3)nc3c(cnn3-c3ccc(Cl)cc3)c2=O)c1", "Potency": "inconclusive [inhibitor, full curve, poor fit]"}
{"smiles": "Cc1cnn(CCC(=O)NNC(=S)NCC(C)C)c1", "Potency": "inconclusive [inhibitor, partial curve, poor fit]"}
{"smiles": "CCn1c(C)c2c([n+]1CC)CC(C)(C)CC2=O", "activity change, negative = inhibition": "inactive: -1.08%"}
{"smiles": "Cc1cc2nc(-c3ccc(Cl)cc3)c(Cc3ccsc3)n2c(C)c1Br", "Potency": "inconclusive [inhibitor, single point]"}
{"smiles": "Cc1cccc2c(=O)c(C(=O)NCCc3ccccc3)c[nH]c12", "activity change, negative = inhibition": "inactive: 0.583%"}
{"smiles": "CN(C)c1ccc(-c2csc(C(C)(O)c3ccc(F)c(F)c3)n2)cc1", "note": "(stereo unspecified)", "Potency": "inconclusive [inhibitor, partial curve, poor fit]"}
{"smiles": "COc1ccccc1Nc1cc(C)nc(Nc2ccccc2OC)n1", "Potency": "inconclusive [inhibitor, partial curve, poor fit]"}
{"smiles": "O=C(CSc1cn(CCNC(=O)c2ccccc2F)c2ccccc12)Nc1ccc(F)cc1", "Potency": "inconclusive [inhibitor, single point]"}
{"smiles": "COc1ccc(N(CC(=O)NC(C)c2ccccc2)S(=O)(=O)c2ccc(C)cc2)cc1", "note": "(stereo unspecified)", "Potency": "inconclusive [inhibitor, partial curve]"}
{"smiles": "CCOC(=O)C1(Cc2cccc(OC)c2)CCN(Cc2cc(OC)ccc2OC)CC1", "Potency": "inconclusive [inhibitor, single point]"}
{"smiles": "COc1cc(C(=O)NCC2CCCO2)cc(Br)c1OCc1ccccc1", "note": "(stereo unspecified)", "Potency": "inconclusive [inhibitor, partial curve, poor fit]"}
{"smiles": "S=C(NCc1ccc(Cl)c(Cl)c1)Nc1ccc2c(c1)OCO2", "activity change, negative = inhibition": "inactive: 8.47%"}
{"smiles": "Cc1ccc(OCc2nc(C#N)c(NCc3ccc4c(c3)OCO4)o2)cc1", "Potency": "inconclusive [inhibitor, single point]"}
{"smiles": "Fc1cccc(Cl)c1C1Nc2cccc3cccc(c23)N1", "activity change, negative = inhibition": "inactive: 46.6%"}
{"smiles": "Cc1ccc(N2CC(C(=O)N3CCC4(CC3)CC(=O)c3ccccc3O4)CC2=O)cc1", "note": "(stereo unspecified)", "Potency": "inconclusive [inhibitor, single point]"}
{"smiles": "COC(=O)CN1C(=O)C(C)(C)c2cc(S(=O)(=O)NCc3ccc(Cl)cc3)ccc21", "activity change, negative = inhibition": "inactive: 9.68%"}
{"smiles": "CCCCN(CCCC)C1=C(C(=O)c2ccccc2)N(CC)S(=O)(=O)c2ccccc21", "activity change, negative = inhibition": "inactive: -14.5%"}
{"smiles": "CC(C)C[C@]1(c2ccccc2)ON(c2ccccc2C(F)(F)F)C1=O", "Potency": "inconclusive [inhibitor, single point]"}
{"smiles": "C/C(=N\\NC(=S)Nc1cccc(C)c1)c1cc2ccccc2o1", "activity change, negative = inhibition": "inactive: 9.22% [at 7.66 µM]"}
{"smiles": "Cc1ccn2c(Nc3c(C)cccc3C)c(-c3ccc(Cl)s3)nc2c1", "Potency": "inconclusive [inhibitor, single point]"}
{"smiles": "CC(C)C1C(=O)N(Cc2cn(CCC3OCCCO3)nn2)CCS(=O)(=O)N1Cc1ccc(-c2ccc(Cl)cc2)cc1", "note": "(stereo unspecified)", "activity change, negative = inhibition": "inactive: -22.5%"}
{"smiles": "Cc1ccc(NC(=S)N/N=C2\\CC(C)(C)Oc3ccc(O)cc32)cc1", "Potency": "inconclusive [inhibitor, partial curve, poor fit]"}
{"smiles": "O=C(O)CCc1ccc(-c2ccc(Br)cc2)n1NC(=O)c1ccc([N+](=O)[O-])cc1", "Potency": "inconclusive [inhibitor, single point]"}
{"smiles": "CC(C)(C)c1ccc(C(=O)NNC(=O)CCC(=O)Nc2ccccc2)cc1", "Potency": "inconclusive [inhibitor, single point]"}
{"smiles": "Cc1cccc(NC(=S)N/N=C/c2ccc([N+](=O)[O-])s2)c1", "Potency": "inconclusive [inhibitor, single point]"}
{"smiles": "CCC(C(=O)NCc1ccccc1OC)c1ccccc1", "note": "(stereo unspecified)", "Potency": "inconclusive [inhibitor, single point]"}
{"smiles": "CCOC(=O)C1=C(C)OC(=Cc2ccccc2)C1=O", "activity change, negative = inhibition": "inactive: 6.95%"}
{"smiles": "CCOc1ccc(-n2c(Cc3ccccc3)nnc2SCc2nc(-c3cccs3)no2)cc1", "Potency": "inconclusive [inhibitor, partial curve, poor fit]"}
{"smiles": "O=C(CN1CCN(S(=O)(=O)c2ccc(Cl)cc2)CC1)NCC1(N2CCOCC2)CCCCC1", "Potency": "inconclusive [inhibitor, single point]"}
{"smiles": "COc1ccccc1NS(=O)(=O)c1cccc(C(=O)NC2CCN(Cc3ccccc3)CC2)c1", "Potency": "inconclusive [inhibitor, partial curve, poor fit]"}
{"smiles": "O=C(Nc1ccc(Br)cc1)c1ccc(Cl)c(S(=O)(=O)N2CCCCCC2)c1", "activity change, negative = inhibition": "inactive: -24.7%"}
{"smiles": "CCOc1ccccc1OCCN1CCC(Cc2ccccc2)CC1", "Potency": "inconclusive [inhibitor, partial curve, poor fit]"}
{"smiles": "Cn1cc(C(=O)c2ccc(Cl)cc2Cl)cc1C(=O)N/N=C(\\N)COc1ccc(F)cc1", "Potency": "inconclusive [inhibitor, partial curve, poor fit]"}
{"smiles": "CCOC(=O)NC1(C(F)(F)F)NC(=O)N(c2cccc(C(F)(F)F)c2)C1=O", "note": "(stereo unspecified)", "Potency": "inconclusive [inhibitor, single point]"}
{"smiles": "C=CC[n+]1c(-c2ccc(Cl)cc2Cl)csc1Nc1c(C)n(C)n(-c2ccccc2)c1=O", "Potency": "inconclusive [inhibitor, partial curve, poor fit]"}
{"smiles": "S=C(NCc1ccccc1)Nc1ccc(Cl)cc1", "Potency": "inconclusive [inhibitor, partial curve, poor fit]"}
{"smiles": "Cc1ccc(CSc2nc3ccsc3c(=O)n2CCC(C)C)cc1", "Potency": "inconclusive [inhibitor, single point]"}
{"smiles": "CCC1CCCCN1C(=O)c1cccc(S(=O)(=O)Nc2cc(C(F)(F)F)ccc2Cl)c1", "note": "(stereo unspecified)", "Potency": "inconclusive [inhibitor, single point]"}
{"smiles": "CCCCOc1ccc(-c2n[nH]c(=S)n2Cc2ccccc2)cc1", "Potency": "inconclusive [inhibitor, partial curve]"}
{"smiles": "Cc1cc(=O)n(Cc2ccccc2Cl)c2c1c(C)nn2-c1ccccc1", "activity change, negative = inhibition": "inactive: 11%"}
